# Laboratory results as given in ChEMBL document CHEMBL5606458, “ASAP - ZIKV NS2B-NS3 protease fluorescence single point” (2024).
# Among all 2,700 compounds or so, about 160 (5.9%) showed an effect of 50% or more. The list shows a part of the results. Where a SMILES comes first, the peptide text is derived from it. [ ]: non-standard residue; d: D form. Phg = N[C@H](C(=O)O)c1ccccc1; 4Amb = NCc1ccc(C(=O)O)cc1; Nle = CCCC[C@H](N)C(=O)O
# Biological target: Nonstructural protein 3 (Zika virus) (UniProt A0A024AXB9)
# [1] = PRVABC59, Concentration 50.0 uM, Number of replicates 1.0
# [2] = PRVABC59, Concentration 15.0 uM, Number of replicates 1.0
# [3] = PRVABC59, Concentration 10.0 uM, Number of replicates 1.0
# Sequence of UniProt A0A024AXB9 (A0A024AXB9 as listed by the source): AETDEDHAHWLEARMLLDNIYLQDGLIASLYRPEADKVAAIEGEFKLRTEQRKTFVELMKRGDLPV
smiles,measurement,setting,value
C[C@H]1c2cc(O)c(O)cc2CCN1C(=O)C1CCN(c2ccc(C=O)cc2)CC1,inhibition,[1],35.9%
O=Cc1ccc(N2CCC(C(=O)Nc3ncc(Br)nc3Cl)CC2)cc1,inhibition,[1],-2.78%
O=Cc1ccc(N2CCC(C(=O)NC3(c4ccc(Cl)cc4)CC3)CC2)cc1,inhibition,[1],17.9%
[N-]=[N+]=NCCOCCOCCOCCNC(=O)c1cc(Cl)ccc1NS(=O)(=O)c1ccc(Oc2ccccc2Cl)cc1,inhibition,[2],-2.17%
O=Cc1ccc(N2CCC(C(=O)Nc3cccc(OC(F)(F)F)c3)CC2)cc1,inhibition,[1],23%
CC(=O)Nc1ccc(C(=O)Nc2cccc(Cc3cccc4c(CO)cc(C)nc34)c2)cn1,inhibition,"PRVABC59, Concentration 49.95 uM, Number of replicates 2.0, Standard deviation 2.007257821672428 %",-6.17%
same,inhibition,"PRVABC59, Concentration 99.9 uM, Number of replicates 2.0, Standard deviation 0.8731569349497679 %",-4.81%
CN1CCC(C#N)(C(=O)N2CC(NC(=O)c3ccc4[nH]c(N(C)C)nc4c3)C2)CC1,inhibition,"PRVABC59, Concentration 49.5 uM, Number of replicates 2.0, Standard deviation 2.468574044705993 %",-0.431%
same,inhibition,"PRVABC59, Concentration 99.01 uM, Number of replicates 2.0, Standard deviation 3.240163733946571 %",0.727%
same,inhibition,"PRVABC59, Concentration 198.0 uM, Number of replicates 2.0, Standard deviation 3.3016858048192868 %",2%
O=Cc1ccc(N2CCC(C(=O)Nc3nc4c(Cl)cccc4s3)CC2)cc1,inhibition,[1],24.6%
Cc1cnccc1NC(=O)c1csc(CC(C)C)n1,inhibition,"PRVABC59, Concentration 49.5 uM, Number of replicates 2.0, Standard deviation 2.5907989886936305 %",1.98%
same,inhibition,"PRVABC59, Concentration 99.01 uM, Number of replicates 2.0, Standard deviation 1.9094189704762088 %",3.41%
same,inhibition,"PRVABC59, Concentration 198.0 uM, Number of replicates 2.0, Standard deviation 1.8964648837052944 %",6.16%
Cc1n[nH]c(NC(=O)C2CCN(c3ccc(C=O)cc3)CC2)c1Br,inhibition,[1],23.1%
Cc1cc(CO)c2cccc(Cc3ccccc3NC(=O)c3nc(N)n[nH]3)c2n1,inhibition,"PRVABC59, Concentration 49.95 uM, Number of replicates 2.0, Standard deviation 1.1858913556413317 %",-1.17%
same,inhibition,"PRVABC59, Concentration 99.9 uM, Number of replicates 2.0, Standard deviation 1.6592298829189325 %",2.56%
O=Cc1ccc(N2CCC(C(=O)N(CCc3ccccc3)C3CCCC3)CC2)cc1,inhibition,[1],23.2%
Cc1cc(CO)c2cccc(Cc3cccc(C(=O)N4CCC(CN)CC4)c3)c2n1,inhibition,"PRVABC59, Concentration 49.95 uM, Number of replicates 2.0, Standard deviation 0.3303341859864401 %",94.6%
same,inhibition,"PRVABC59, Concentration 99.9 uM, Number of replicates 2.0, Standard deviation 0.3198467013777773 %",90.9%
CN(C)Cc1cccc(CNC(=O)C2CCN(c3ccc(C=O)cc3)CC2)c1,inhibition,[3],30%
CN(CC[C@H](O)c1cccs1)C(=O)c1cc(Cl)ccc1NS(=O)(=O)c1ccc(Oc2ccccc2Cl)cc1,inhibition,[2],7.67%
O=Cc1ccc(N2CCC(C(=O)N3CCN(C(=O)c4ccc(O)cc4)CC3)CC2)cc1,inhibition,[1],27.6%
CC(C)(C)c1csc(NC(=O)c2cc(Cl)ccc2NS(=O)(=O)c2ccc(Oc3ccccc3Cl)cc2)n1,inhibition,[2],22.1%
O=Cc1ccc(N2CCC(C(=O)N3CCN(C/C=C/c4ccccc4)CC3)CC2)cc1,inhibition,[1],25.2%
Cc1c(C(=O)N[C@@]2(C)CCN(Cc3cnn[nH]3)C2)ccc(O)c1NC(=O)c1ccncc1F,inhibition,"PRVABC59, Concentration 49.5 uM, Number of replicates 2.0, Standard deviation 2.392637309100642 %",-3.82%
same,inhibition,"PRVABC59, Concentration 99.01 uM, Number of replicates 2.0, Standard deviation 2.599773854519374 %",-2.18%
same,inhibition,"PRVABC59, Concentration 198.0 uM, Number of replicates 2.0, Standard deviation 3.576274229815126 %",0.466%
CN(C)c1ccc(C(=O)Nc2cc(Cl)cc(C(=O)NC(C)(C)CO)c2)nc1,inhibition,"PRVABC59, Concentration 49.5 uM, Number of replicates 2.0, Standard deviation 3.9613998246279105 %",-1.53%
same,inhibition,"PRVABC59, Concentration 99.01 uM, Number of replicates 2.0, Standard deviation 2.7948399639930708 %",0.849%
Cc1cc(CO)c2cccc(NC(=O)Cc3cccc(CN)c3)c2n1,inhibition,"PRVABC59, Concentration 49.95 uM, Number of replicates 2.0, Standard deviation 2.002239649301327 %",8.36%
same,inhibition,"PRVABC59, Concentration 99.9 uM, Number of replicates 2.0, Standard deviation 0.9082841415474754 %",22.1%
CN(C)c1ccc(CNC(=O)c2cc(Cl)ccc2NS(=O)(=O)c2ccc(Oc3ccccc3Cl)cc2)cc1,inhibition,[2],17.4%
O=C(NC1CCN(C(=O)c2cc(Cl)ccc2NS(=O)(=O)c2ccc(Oc3ccccc3Cl)cc2)CC1)c1ccccc1,inhibition,[2],10.3%
Cc1cc(Br)c(NC(=O)c2cc(Cl)ccc2NS(=O)(=O)c2ccc(Oc3ccccc3Cl)cc2)c([N+](=O)[O-])c1,inhibition,[2],22.9%
Cc1cc(CO)c2cccc(C[C@H](NC(=O)Cc3nnc(C)[nH]3)C(=O)O)c2n1,inhibition,"PRVABC59, Concentration 49.95 uM, Number of replicates 2.0, Standard deviation 0.5068325434955111 %",2.74%
same,inhibition,"PRVABC59, Concentration 99.9 uM, Number of replicates 2.0, Standard deviation 0.9333753405777689 %",9.45%
CCOCc1nc(Cn2cc(C3CCNCC3)c(C)n2)cs1,inhibition,"PRVABC59, Concentration 49.5 uM, Number of replicates 2.0, Standard deviation 3.999716409692983 %",-1.96%
same,inhibition,"PRVABC59, Concentration 99.01 uM, Number of replicates 2.0, Standard deviation 4.660467178754702 %",-0.974%
same,inhibition,"PRVABC59, Concentration 198.0 uM, Number of replicates 2.0, Standard deviation 3.9603613262806023 %",-0.265%
CCN(C(=O)C1CCN(c2ccc(C=O)cc2)CC1)[C@H]1CCOC(C)(C)C1,inhibition,[1],24.4%
C[C@H](NC(=O)C1CCN(c2ccc(C=O)cc2)CC1)C12CC3CC(CC(C3)C1)C2,inhibition,[1],15.4%
O=C(CNC(=O)c1cc(Cl)ccc1NS(=O)(=O)c1ccc(Oc2ccccc2Cl)cc1)c1ccccc1F,inhibition,[2],40.7%
CC(C)(NC(=O)c1cc(Cl)ccc1NS(=O)(=O)c1ccc(Oc2ccccc2Cl)cc1)c1ccc(Cl)cc1,inhibition,[2],44.3%
CN(C)Cc1ccc(NCc2ccc(N3CCN(C)CC3)cc2)nc1,inhibition,"PRVABC59, Concentration 49.5 uM, Number of replicates 2.0, Standard deviation 0.4640657991367188 %",-2.39%
same,inhibition,"PRVABC59, Concentration 99.01 uM, Number of replicates 2.0, Standard deviation 0.7284754441158133 %",-1.05%
same,inhibition,"PRVABC59, Concentration 198.0 uM, Number of replicates 2.0, Standard deviation 0.8166119221974307 %",1.21%
NS(=O)(=O)c1ccc(CN2CC[C@H](c3c[nH]c4ccccc34)C2)cc1,inhibition,"PRVABC59, Concentration 49.5 uM, Number of replicates 2.0, Standard deviation 7.161002948854144 %",6.37%
same,inhibition,"PRVABC59, Concentration 99.01 uM, Number of replicates 2.0, Standard deviation 1.659205437746796 %",6.39%
same,inhibition,"PRVABC59, Concentration 198.0 uM, Number of replicates 2.0, Standard deviation 2.217206109795867 %",16.1%
O=C(c1nc2ccccc2[nH]1)N1CCC[C@H](c2cc3ccccc3[nH]2)C1,inhibition,"PRVABC59, Concentration 49.5 uM, Number of replicates 2.0, Standard deviation 1.1321789904305632 %",7.59%
same,inhibition,"PRVABC59, Concentration 99.01 uM, Number of replicates 2.0, Standard deviation 0.9508227871621268 %",7.42%
same,inhibition,"PRVABC59, Concentration 198.0 uM, Number of replicates 2.0, Standard deviation 1.4793462905374664 %",9.14%
Cc1cc(CO)c2cccc(Cc3ccccc3NC(=O)[C@H](N)CCO)c2n1,inhibition,"PRVABC59, Concentration 49.95 uM, Number of replicates 2.0, Standard deviation 2.3056170481549874 %",-1.76%
same,inhibition,"PRVABC59, Concentration 99.9 uM, Number of replicates 2.0, Standard deviation 1.6032436530841527 %",1.71%
CCCC[C@H](NC(C)=O)C(=O)N[C@H](C(=O)NCc1ccc(C(N)=O)cc1)c1ccccc1 (Ac-[Nle]-[Phg]-[4Amb]-NH2),inhibition,"PRVABC59, Concentration 49.5 uM, Number of replicates 2.0, Standard deviation 0.08688180854829654 %",0.43%
same,inhibition,"PRVABC59, Concentration 99.01 uM, Number of replicates 2.0, Standard deviation 0.6344392080327925 %",2.21%
same,inhibition,"PRVABC59, Concentration 198.0 uM, Number of replicates 2.0, Standard deviation 1.1213816421916485 %",3.42%
CN(Cc1nc(-c2cccnc2)no1)C(=O)C1CCN(c2ccc(C=O)cc2)CC1,inhibition,[1],23.8%
Cc1nc(CNC(=O)c2cc(Cl)ccc2NS(=O)(=O)c2ccc(Oc3ccccc3Cl)cc2)nc2c1CCCC2,inhibition,[2],37%
O=Cc1ccc(N2CCC(C(=O)NC[C@H]3COc4ccccc4O3)CC2)cc1,inhibition,[1],27.6%
O=C(c1cc(Cl)ccc1NS(=O)(=O)c1ccc(Oc2ccccc2Cl)cc1)N1CCN(CC2CCCCC2)CC1,inhibition,[2],23.1%
O=Cc1ccc(N2CCC(C(=O)NCc3ccc4ccccc4n3)CC2)cc1,inhibition,[3],0.156%
COc1ccc(-c2ccccc2C(=O)Nc2cnn(C)c2)cn1,inhibition,"PRVABC59, Concentration 49.5 uM, Number of replicates 2.0, Standard deviation 1.8092283251330816 %",-6.26%
same,inhibition,"PRVABC59, Concentration 99.01 uM, Number of replicates 2.0, Standard deviation 2.476091272312699 %",-6.53%
same,inhibition,"PRVABC59, Concentration 198.0 uM, Number of replicates 2.0, Standard deviation 0.8234310715522508 %",-5.53%
O=C(CCNC(=O)c1cc(Cl)ccc1NS(=O)(=O)c1ccc(Oc2ccccc2Cl)cc1)NC1CCCCC1,inhibition,[2],30.5%
C=CCN(Cc1ccc(F)cc1)C(=O)c1cc(Cl)ccc1NS(=O)(=O)c1ccc(Oc2ccccc2Cl)cc1,inhibition,[2],36.5%
CC(C)Cn1cccc(C(=O)NC2CCNCC2)c1=O,inhibition,"PRVABC59, Concentration 49.5 uM, Number of replicates 2.0, Standard deviation 4.594544281474448 %",-7.66%
same,inhibition,"PRVABC59, Concentration 99.01 uM, Number of replicates 2.0, Standard deviation 4.775385618841476 %",-9.55%
O=C(NCc1nnc(-c2ccccc2)o1)c1cc(Cl)ccc1NS(=O)(=O)c1ccc(Oc2ccccc2Cl)cc1,inhibition,[2],54.2%
O=Cc1ccc(N2CCC(C(=O)Nc3ccccc3Cc3ccccc3)CC2)cc1,inhibition,[1],26.1%
CC(C)C[C@@H](NC(=O)OCc1ccccc1)C(=O)Nc1cccc(CN)c1,inhibition,"PRVABC59, Concentration 49.5 uM, Number of replicates 2.0, Standard deviation 4.877475611912747 %",4.28%
same,inhibition,"PRVABC59, Concentration 99.01 uM, Number of replicates 2.0, Standard deviation 0.6723794638875112 %",6.03%
same,inhibition,"PRVABC59, Concentration 198.0 uM, Number of replicates 2.0, Standard deviation 0.5215480313593926 %",12.7%
O=C(c1cc(Cl)ccc1NS(=O)(=O)c1ccc(Oc2ccccc2Cl)cc1)N1CCC(Oc2ncccn2)CC1,inhibition,[2],6.88%
C[C@H](NC(=O)C1CCN(c2ccc(C=O)cc2)CC1)c1ccc(N2CCOCC2)cc1,inhibition,[1],26.2%
O=C(N[C@@H](CO)Cc1ccccc1)c1cc(Cl)ccc1NS(=O)(=O)c1ccc(Oc2ccccc2Cl)cc1,inhibition,[2],33.2%
CN(Cc1nccn1Cc1ccccc1)C(=O)C1CCN(c2ccc(C=O)cc2)CC1,inhibition,[1],21.1%
CN(Cc1nccn1Cc1ccccc1)C(=O)c1cc(Cl)ccc1NS(=O)(=O)c1ccc(Oc2ccccc2Cl)cc1,inhibition,[2],5.33%
O=Cc1ccc(N2CCC(C(=O)N3CCNC(=O)[C@@H]3c3ccccc3)CC2)cc1,inhibition,[1],16.7%
